# Test results taken from the supplement of paper PMC11417369.
# Some of the results follow.
# Test system: PfAP2-HC AP2 domain (GST-tagged)
# Assay: gcPBM binding intensity (ln(normalized median fluorescence intensity)); higher = stronger DNA binding
# Outline: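 Binding of GST-tagged P. falciparum DNA-binding domains, expressed in E. coli and used at about 25 μg on average, was carried out for 1 h in 1× PBS containing 1% milk, 0.2 mg/ml BSA, 0.5% salmon testes DNA and 0.03% Triton X-100. The target was an Agilent 4 × 180k array of primer-extended double-stranded 36-bp intergenic genomic probes plus negative controls, read with Alexa488 anti-GST antibody at 488 nm. Binding intensity is the highest Masliner-normalised natural-log median intensity across replicate spots of either probe orientation.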
row,Sequence,gcPBM binding intensity (ln)
1,TATCCTACATTAACAAGTACAAAGAGATCCTACGTA [XGTACX_site4252],9.45
2,AAGAATATATAGGACACACATACAATAATAAATATA [CACACA_site4119],10.3
3,AACGCCACTTCAATGGCACACACCAATTATTTTTCA [CACACA_site1026],9.88
4,TTTCTCCATATTAAAGTGCATTAATAACAAAAATAA [GTGCAC_site9934],9.37
5,CAAGAACAAAAAATATGTACATATAATTATATATAT [XGTACX_site2082],9.78
6,CATATCTCTTATTAATGTACATTTTTAAAAGTAAAT [XGTACX_site2847],9.55
7,CTTTTTTTTATGAACAGTACAGAAATATATATATAC [XGTACX_site5613],9.44
8,TTTATATAATGGAAAAGTACTCAGGAAATTTATACA [XGTACX_site3635],9.53
9,TTGTTCCAATAAAATCGTACAATTAAACAACCAAAC [XGTACX_site5759],9.74
10,TTTTTTTCTATAATACACCAGAAAAAAAAATTAAAA [TGCATGCA_negctrl_site257],9.25
11,AGATTGAAATATAGTTGTACAAATATTTTAAAACAT [XGTACX_site3026],9.81
12,CAATCAACAAAACATACACACACATATATATATATA [CACACA_site8979],10.3
13,TTAAAATTAAAAATAGGTACACATATGAACAAGGAC [XGTACX_site1180],10.1
14,TTATATGATATATGACGTACATATTAATAACATCTA [XGTACX_site6716],9.51
15,TGTAATATTTTATAAAGTACATTATAATATAATTCA [XGTACX_site2961],9.39
16,TATAAAGCAACTGAAACACACAAATTTTTTTTTTTT [CACACA_site3218],9.91
17,ACTATTTTCTTCAAAACATGCACCACATAAACATAA [TGCATGCA_site200],9.58
18,ATTATTTATTTATGTGTGCGCATGTGTGTAAATATT,10.3
19,TTAAACATATATTAAGCACACACAAACAAAAAAACA [CACACA_site8816],10.2

row,Sequence,gcPBM binding intensity (ln)
1,AACATATTTTTTTGTTGTACTTACAATTATAAGCAT [XGTACX_site3056],9.58
2,TATACCAAATATATGGGTACACAAATATGTTTATTC [XGTACX_site8932],9.61
3,TAATTAATCGATTTACGCACATGAACAAAAGCACAT [CACACA_negctrl_site1287],9.77
4,AGAAAAAAAAAAAATGCACACATTTTCATTGTCAGT [CACACA_site1935],9.7
5,ATATATATATATATGTGTACATATTTTTTTTTTTTT [XGTACX_site3425],9.87
6,AAAAAACACAGACATACACACAAAAAGGTTATAAAT [CACACA_site4222],10.2
7,GTAAATATTAATAAAAGTACATATGTAGCATATGGA [XGTACX_site5219],9.89
8,CCTTTTTTATTTACAACACACGTAAAGGTTCAAATA [CACACA_site1741],9.52
9,ATTTTTTAAATGAGGCGTACACAAAAATATAATTAC [XGTACX_site7087],9.76
10,CTTAGATATAAAAATTGTACATACATATTTTTGACA [XGTACX_site2107],9.45
11,TATATATATATATATACACACACACTAATAAAAAAA [CACACA_site8426],11
12,TTTTTTTCGTAAAAAAAAATAATTATTAAATGAAGG [TGCATGCA_negctrl_site212],9.26
13,TATTATAAAATATACACATGCAAAAACAAAATTTAC [TGCATGCA_site1051],9.75
14,TATTTTTAATAAAAACGTACGGAATACAAAAAAAAT [XGTACX_site3477],9.77
15,TATATACATTGGTATACATGCATTCTCTTTCATACA [TGCATGCA_site734],9.64
16,TAAAATTTATAAACTACACACATATAAATAGTAATA [CACACA_site7708],9.98
17,TAAACACCCATATAAACACACATATAAACACCCATA [CACACA_site5382],10.3
18,TTTATTTATTTTTAACGTACGCACACATATAAATAT [XGTACX_site4042],10.5
19,CACATACACATACAAACACACATTATATATATATAT [CACACA_site8460],10.4

row,Sequence,gcPBM binding intensity (ln)
1,CATCCATTATTAATATGTACATATGTATATATATTA [XGTACX_site1318],9.68
2,GAAAAAAAAAAAAGGGGTACATTTATTTTATCAATA [XGTACX_site8331],9.35
3,TTTTTTTTTTTTTTTTTTTTTTTCTTTATTTTTTTT [CACACA_negctrl_site703],8.77
4,AAAATTTAAAAATGGACACACACAAAAAATAATACT [CACACA_site7972],10.3
5,AACTTTTTACAAACAGGTACGCATATATATATATAT [XGTACX_site5081],9.84
6,AATAATTATTTGTATAGTACAATATACAAAAGATGA [XGTACX_site4312],9.72
7,ATATATATATGTGCCAGTACACATGTATACATTATA [XGTACX_site3899],9.79
8,AAAATTAATAAATAAACACACATATTTATATTTATA [CACACA_site7266],9.69
9,TATAAATATAGACACACACACACACCGAAGCGTAGC [CACACA_site6180],10.6
10,TCGTCACTTTAATATTGTACATATATATATATATAT [XGTACX_site8046],9.93
11,TATATCTACTTAAAAAGTACGTAAATTATAAGCTAT [XGTACX_site6420],9.32
12,TGTGTAAATATGTATACACACATATCTGATCAATAT [CACACA_site7507],9.92
13,TATATGTATTTATATACACACATATTCTTTTTACAC [CACACA_site8320],9.93
14,TCCTTTTCATCTTGTAGTACGGAAATGTAGCTCCAA [XGTACX_site8563],9.45
15,AATATTTTGAACAACAGTACTCTTTCTTTCTTTCTT [XGTACX_site7212],9.51
16,ACCTCACAAATGAATACACACAAACATATAGATTTA [CACACA_site6862],10.1
17,ATATATAAAATTATATGTACATATATCTATTTATAA [XGTACX_site3713],9.63
18,GATTAAAACTTTAACTGTACATAATAATTATCAATC [XGTACX_site5938],9.51
19,TTTAAAATTTCTTAATGTACGTAATAAAAAAAAAAA [XGTACX_site4037],9.36
